# Assay results published in US20260217835A1 (published 2026).
# B1: WT IgG1 full-length heavy chain (SEQ ID NO: 1) with light chain (SEQ ID NO: 61) (antibody)
# heavy: QVQLQESGPGLVRPSQTLSLTCTVSGYSITSDHAWSWVRQPPGRGLEWIGYISYSGITTYNPSLKSRVTMLRDTSKNQFSLRLSSVTAADTAVYYCARSLARTTAMDYWGQGSLVTVSSASTKGPSVFPLAPSSKSTSGGTAALGCLVKDYFPEPVTVSWNSGALTSGVHTFPAVLQSSGLYSLSSVVTVPSSSLGTQTYICNVNHKPSNTKVDKRV[no letters for human IgG1 Fc]
# light: DIQMTQSPSSLSASVGDRVTITCRASQDISSYLNWYQQKPGKAPKLLIYYTSRLHSGVPSRFSGSGSGTDFTFTISSLQPEDIATYYCQQGNTLPYTFGQGTKVEIKRTVAAPSVFIFPPSDEQLKSGTASVVCLLNNFYPREAKVQWKVDNALQSGNSQESVTEQDSKDSTYSLSSTLTLSKADYEKHKVYACEVTHQGLSSPVTKSFNRGEC
# B2: Full-length human IgG1 heavy chain with T394Y/F405A (SEQ ID NO: 383) with light chain SEQ ID NO: 61 (antibody)
# heavy: QVQLQESGPGLVRPSQTLSLTCTVSGYSITSDHAWSWVRQPPGRGLEWIGYISYSGITTYNPSLKSRVTMLRDTSKNQFSLRLSSVTAADTAVYYCARSLARTTAMDYWGQGSLVTVSSASTKGPSVFPLAPSSKSTSGGTAALGCLVKDYFPEPVTVSWNSGALTSGVHTFPAVLQSSGLYSLSSVVTVPSSSLGTQTYICNVNHKPSNTKVDKRV[no letters for human IgG1 Fc with T394Y F405A (EU numbers)]
# light: B1 light
# notes: also called Sample No. 973
# B3: Full-length human IgG1 heavy chain with T394Y/F405T (SEQ ID NO: 385) with light chain SEQ ID NO: 61 (antibody)
# heavy: QVQLQESGPGLVRPSQTLSLTCTVSGYSITSDHAWSWVRQPPGRGLEWIGYISYSGITTYNPSLKSRVTMLRDTSKNQFSLRLSSVTAADTAVYYCARSLARTTAMDYWGQGSLVTVSSASTKGPSVFPLAPSSKSTSGGTAALGCLVKDYFPEPVTVSWNSGALTSGVHTFPAVLQSSGLYSLSSVVTVPSSSLGTQTYICNVNHKPSNTKVDKRV[no letters for human IgG1 Fc with T394Y F405T (EU numbers)]
# light: B1 light
# notes: also called Sample No. 975
# B4: Full-length human IgG1 heavy chain with T394F/F405G (SEQ ID NO: 388) with light chain SEQ ID NO: 61 (antibody)
# heavy: QVQLQESGPGLVRPSQTLSLTCTVSGYSITSDHAWSWVRQPPGRGLEWIGYISYSGITTYNPSLKSRVTMLRDTSKNQFSLRLSSVTAADTAVYYCARSLARTTAMDYWGQGSLVTVSSASTKGPSVFPLAPSSKSTSGGTAALGCLVKDYFPEPVTVSWNSGALTSGVHTFPAVLQSSGLYSLSSVVTVPSSSLGTQTYICNVNHKPSNTKVDKRV[no letters for human IgG1 Fc with T394F F405G (EU numbers)]
# light: B1 light
# notes: also called Sample No. 978
# B5: Full-length human IgG1 heavy chain with T394H/F405A (SEQ ID NO: 384) with light chain SEQ ID NO: 61 (antibody)
# heavy: QVQLQESGPGLVRPSQTLSLTCTVSGYSITSDHAWSWVRQPPGRGLEWIGYISYSGITTYNPSLKSRVTMLRDTSKNQFSLRLSSVTAADTAVYYCARSLARTTAMDYWGQGSLVTVSSASTKGPSVFPLAPSSKSTSGGTAALGCLVKDYFPEPVTVSWNSGALTSGVHTFPAVLQSSGLYSLSSVVTVPSSSLGTQTYICNVNHKPSNTKVDKRV[no letters for human IgG1 Fc with T394H F405A (EU numbers)]
# light: B1 light
# notes: also called Sample No. 974
# B6: Full-length human IgG1 heavy chain with T394Y/F405C (SEQ ID NO: 386) with light chain SEQ ID NO: 61 (antibody)
# heavy: QVQLQESGPGLVRPSQTLSLTCTVSGYSITSDHAWSWVRQPPGRGLEWIGYISYSGITTYNPSLKSRVTMLRDTSKNQFSLRLSSVTAADTAVYYCARSLARTTAMDYWGQGSLVTVSSASTKGPSVFPLAPSSKSTSGGTAALGCLVKDYFPEPVTVSWNSGALTSGVHTFPAVLQSSGLYSLSSVVTVPSSSLGTQTYICNVNHKPSNTKVDKRV[no letters for human IgG1 Fc with T394Y F405C (EU numbers)]
# light: B1 light
# notes: also called Sample No. 590; Sample No. 976
# B7: Full-length heavy chain with T394H/F405C (SEQ ID NO: 394) with light chain SEQ ID NO: 61 (antibody, human IgG1, kappa)
# heavy: QVQLQESGPGLVRPSQTLSLTCTVSGYSITSDHAWSWVRQPPGRGLEWIGYISYSGITTYNPSLKSRVTMLRDTSKNQFSLRLSSVTAADTAVYYCARSLARTTAMDYWGQGSLVTVSSASTKGPSVFPLAPSSKSTSGGTAALGCLVKDYFPEPVTVSWNSGALTSGVHTFPAVLQSSGLYSLSSVVTVPSSSLGTQTYICNVNHKPSNTKVDKRV[no letters for human IgG1 Fc with T394H F405C (EU numbers)]
# light: B1 light
# notes: also called Sample No. 984
# B8: Full-length heavy chain with T394H/F405G (SEQ ID NO: 391) with light chain SEQ ID NO: 61 (antibody, human IgG1, kappa)
# heavy: QVQLQESGPGLVRPSQTLSLTCTVSGYSITSDHAWSWVRQPPGRGLEWIGYISYSGITTYNPSLKSRVTMLRDTSKNQFSLRLSSVTAADTAVYYCARSLARTTAMDYWGQGSLVTVSSASTKGPSVFPLAPSSKSTSGGTAALGCLVKDYFPEPVTVSWNSGALTSGVHTFPAVLQSSGLYSLSSVVTVPSSSLGTQTYICNVNHKPSNTKVDKRV[no letters for human IgG1 Fc with T394H F405G (EU numbers)]
# light: B1 light
# notes: also called Sample No. 981
# B9: Full-length heavy chain with T394C/F405C (SEQ ID NO: 395) with light chain SEQ ID NO: 61 (antibody, human IgG1, kappa)
# heavy: QVQLQESGPGLVRPSQTLSLTCTVSGYSITSDHAWSWVRQPPGRGLEWIGYISYSGITTYNPSLKSRVTMLRDTSKNQFSLRLSSVTAADTAVYYCARSLARTTAMDYWGQGSLVTVSSASTKGPSVFPLAPSSKSTSGGTAALGCLVKDYFPEPVTVSWNSGALTSGVHTFPAVLQSSGLYSLSSVVTVPSSSLGTQTYICNVNHKPSNTKVDKRV[no letters for human IgG1 Fc with T394C F405C (EU numbers)]
# light: B1 light
# notes: also called Sample No. 985
# B10: Full-length heavy chain with T394F/F405V (SEQ ID NO: 390) with light chain SEQ ID NO: 61 (antibody, human IgG1, kappa)
# heavy: QVQLQESGPGLVRPSQTLSLTCTVSGYSITSDHAWSWVRQPPGRGLEWIGYISYSGITTYNPSLKSRVTMLRDTSKNQFSLRLSSVTAADTAVYYCARSLARTTAMDYWGQGSLVTVSSASTKGPSVFPLAPSSKSTSGGTAALGCLVKDYFPEPVTVSWNSGALTSGVHTFPAVLQSSGLYSLSSVVTVPSSSLGTQTYICNVNHKPSNTKVDKRV[no letters for human IgG1 Fc with T394F F405V (EU numbers)]
# light: B1 light
# notes: also called Sample No. 980
# B11: Full-length heavy chain with T394H/F405S (SEQ ID NO: 392) with light chain SEQ ID NO: 61 (antibody, human IgG1, kappa)
# heavy: QVQLQESGPGLVRPSQTLSLTCTVSGYSITSDHAWSWVRQPPGRGLEWIGYISYSGITTYNPSLKSRVTMLRDTSKNQFSLRLSSVTAADTAVYYCARSLARTTAMDYWGQGSLVTVSSASTKGPSVFPLAPSSKSTSGGTAALGCLVKDYFPEPVTVSWNSGALTSGVHTFPAVLQSSGLYSLSSVVTVPSSSLGTQTYICNVNHKPSNTKVDKRV[no letters for human IgG1 Fc with T394H F405S (EU numbers)]
# light: B1 light
# notes: also called Sample No. 982
# Target: the molecule itself
# Assay: SEC area ratio of heavy chain homodimer; co-expressed with Fc fragment SEQ ID NO 62
row,Binder,Homo full-length heavy chain (%)
1,B1,28.7

# Target: T1, Fc fragment of human IgG1 below the hinge region containing no modification (SEQ ID NO: 62) (human, UniProt P01857 partial chain = IgG part)
# T1 construct: One Fc chain is meant as the associating unit; it pairs with itself (homo Fc fragment) or with a full-length heavy chain (heteromultimer); also called WT-Fc fragment
# Assay: SEC peak area ratio after coexpression of full-length heavy chain, light chain and Fc fragment in Expi293F
row,Binder,Heteromultimer (%)
1,B2,3.2
2,B3,5.2
3,B4,5.6
4,B5,39.4
5,B6,8.6

# Target: T2, Fc fragment of human IgG1 below the hinge region containing no modification (SEQ ID NO: 62) (human, UniProt P01857 partial chain = IgG part)
# T2 construct: Unmodified human IgG1 Fc fragment coexpressed with each full-length heavy chain and the light chain; it associates through its CH3 interface; also called WT-Fc fragment
# Assay: SEC peak area ratio after coexpression of full-length heavy chain, light chain and WT Fc fragment in Expi293F;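 note: peak area ratios come from chromatograms detected by UV absorbance at 215 nm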
row,Binder,Heteromultimer (%)
1,B7,59.9
2,B8,21.9
3,B9,67.1
4,B10,3.7
5,B11,26.5
